# The whole screen tested about 330,000 compounds, of which about 4,200 (1.3%) were called active. Inconclusive means that the source gave no clear call. Such entries were picked first, then a sample of the others. Calls follow the shape of the dose curve; as a rule, active = well fitted activation curve with a large enough effect; inconclusive = small, poorly fitted or top-dose-only effect; inactive = no such curve, though single readings can be large or run the other way. Potencies beside an inconclusive call are fits to weak or partial responses and may not hold up.
# Assay: qHTS screen for small molecules that induce genotoxicity in human embryonic kidney (HEK293T) cells expressing luciferase-tagged ELG1; also: nearly all actives have a fitted effect of over 60% in size
# Conditions: HEK293T ELG1-luciferase reporter, luminescence, 16 h; series mostly up to 46 µM
# Procedure, shortened: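 16 hr compound incubation (37 °C, 5% CO2) of HEK293T cells carrying luciferase-tagged ELG1; luciferase then measured by ONE-Glo luminescence after 30 min at RT.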
# Potency is read from the fitted curve at half-maximal effect; tags tell the direction and shape of the fitted curve.
row,SMILES,Potency
1,COc1cc([N+](=O)[O-])cc(/C=N/N(CCC#N)C(C)=O)c1O,inactive
2,O=C(OCc1ccccc1Cl)C1CC(=O)N(Cc2ccco2)C1 (configuration not stated),"inconclusive: 29.1 µM [activator, partial curve, poor fit]"
3,Cc1nc(NC(=S)NC(=O)c2cccs2)ccc1Br,"inconclusive: 18.4 µM [activator, partial curve, poor fit]"
4,CCCCOc1ccc(-c2nnc(N)s2)cc1,"inconclusive: 18.4 µM [activator, partial curve, poor fit]"
5,CN1CCSc2ccc(C(=O)NCc3ccccc3F)cc21,inactive
6,CCOC(=O)N1CCC(N2Cc3cccc(C(=O)Nc4cccc(F)c4)c3C2=O)CC1,inactive
7,Cc1nc2cc(-c3ccc(F)cc3)[nH]n2c(=O)c1C,active: 16.4 µM
8,c1cncc(-c2noc(C34CC5CC(CC(C5)C3)C4)n2)c1,"inconclusive: 14.6 µM [activator, partial curve]"
9,COCCNC(=O)COc1ccc(Br)cc1Cl,"inconclusive: 32.6 µM [activator, partial curve, poor fit]"
10,CCc1nnc(NS(=O)(=O)c2ccc(NC(=S)NC(=O)c3ccc(OC)c(OC)c3)cc2)s1,inactive
11,Oc1ccccc1/C=N/Nc1nc2ccccc2o1,active: 9.2 µM
12,CC(=O)OC[C@]12CC[C@H]3[C@@](C)(CC[C@H]4C(C)(C)CCC[C@]34C)[C@@H]1C[C@H](C1=CC(=O)O[C@H]1OC(C)=O)O2,inactive
13,COc1ccc(C(=O)NC2CCCc3ccccc32)cc1OC1CCN(C(C)=O)CC1 (configuration not stated),inactive
14,CCOc1ccc(NC(=O)Nc2ccccc2SC)cc1,"inconclusive: 10.3 µM [activator, partial curve]"
15,O=C(N/N=C/c1ccc(N2CCOCC2)cc1)c1ccccn1,"inconclusive: 9.2 µM [activator, partial curve]"
16,Cc1ccc(S(=O)(=O)CNC(=S)c2ccc3ccccc3c2)cc1,"inconclusive: 14.6 µM [activator, single point]"
17,CCCCC(c1nnnn1Cc1ccco1)N1CCN(C(=O)c2ccco2)CC1 (configuration not stated),"inconclusive: 20.6 µM [activator, partial curve, poor fit]"
18,O=C(NCCN1Cc2ccccc2C1=O)c1cccs1,"inconclusive: 20.6 µM [activator, partial curve, poor fit]"
19,COc1ccc(/C=C2\SC(=O)N(CCC(=O)Nc3ccccc3)C2=O)cc1OC,"inconclusive: 23.1 µM [activator, partial curve, poor fit]"
20,COc1ccc(/C=C(\C#N)c2c[nH]c3ccccc23)cc1,"inconclusive: 35.5 µM [activator, single point]"
21,Cc1ccc(-c2nn3c(C)nnc3c3ccccc23)cc1S(=O)(=O)N(C)CCO,active: 18.4 µM
22,CCc1ccc(C(=O)COC(=O)c2cc([N+](=O)[O-])ccc2NCCO)cc1,inactive
23,O=C(COC(=O)c1c(F)cccc1Cl)NC(=O)Nc1ccc2c(c1)OCCO2,inactive
24,Cc1ccc2cc(C#N)c(SCC(=O)NNC(=O)Cc3ccccc3)nc2c1,"inconclusive: 18.4 µM [activator, single point]"

row,SMILES,Potency
1,CCCCC(=O)Nc1ccc2c(c1)nc1n2CCOC1,"inconclusive: 18.4 µM [activator, partial curve, poor fit]"
2,CC(=O)Nc1ccc(NC(=O)C(C)OC(=O)COc2ccc(Nc3ccccc3)cc2)cc1 (configuration not stated),inactive
3,Cc1csc(N/N=C/c2c(F)cccc2Cl)n1,"inconclusive: 16.4 µM [activator, partial curve]"
4,CCOc1ccc(NC(=O)CSc2cn[nH]n2)cc1,inactive
5,O=C(CN(C(=O)CCC(=O)Nc1ccccn1)c1ccc2c(c1)OCO2)NCc1ccco1,inactive
6,Cc1scc(C(=O)N/N=C/c2ccc(OC(C)C)cc2)c1C,"inconclusive: 18.4 µM [activator, partial curve, poor fit]"
7,CC(C)COc1ccc(-c2nnn(CC(=O)N3CCCC3)n2)cc1,"inconclusive: 20.6 µM [activator, single point]"
8,Cc1cccc(C)c1OCC(=O)NNC(=S)NC(=O)C1CC1,"inconclusive: 20.6 µM [activator, single point]"
9,Cc1nn(-c2ccc(N3CCCCC3)nn2)c(C)c1CCC(=O)Nc1cccc(F)c1,"inconclusive: 3.66 µM [activator, partial curve, poor fit]"
10,CC1CCN(CCCNC(=O)COc2cc(=O)n(C)c3ccccc23)CC1,inactive
11,COc1ccc(NC(=S)N2CCN(CCN3C(=O)c4cccc5cccc(c45)C3=O)CC2)cc1,"inconclusive: 29.1 µM [activator, single point]"
12,O=C(CS(=O)(=O)c1ccccc1)Nc1ccc(S(=O)(=O)Nc2ncccn2)cc1,inactive
13,S=C(Nc1ccccc1Cl)Nc1ccc(Cl)cc1Cl,inactive
14,c1ccc2c(c1)oc1c(N3CCOCC3)ncnc12,"inconclusive: 29.1 µM [activator, partial curve, poor fit]"
15,O=c1[nH]c(N/N=C/c2cc3c(cc2[N+](=O)[O-])OCO3)nc2ccccc12,inactive
16,Cc1oc(C(=O)O)cc1COc1ccc2c3c(c(=O)oc2c1C)CCC3,"inconclusive: 23.1 µM [activator, partial curve, poor fit]"
17,c1ccc(CSc2nnc(-c3ccco3)o2)cc1,"inconclusive: 14.6 µM [activator, partial curve]"
18,CCOC(=O)C1(Cc2cccc(OC)c2)CCCN(C(=O)c2cc(C)oc2C)C1 (configuration not stated),"inconclusive: 29.1 µM [activator, single point]"
19,O=C(CCS(=O)(=O)c1ccc(Cl)cc1)NC1CCCC1,inactive
20,Nc1nc2ccccc2n1C(=O)CCc1ccccc1,active: 2.31 µM
21,CCN(c1ccc(OC)cc1)S(=O)(=O)c1cc(-c2cc(C)no2)ccc1C(C)C,inactive
22,Cc1cc2oc3c(c(=O)c2cc1C)C(c1cccc(Br)c1)N(Cc1ccco1)C3=O (configuration not stated),inactive
23,O=C1CN(c2nc3ccccc3n3cnnc23)CC(=O)N1CCc1ccccc1,inactive
24,O=C(CSc1nnnn1-c1ccc(O)cc1)Nc1ccc(N2CCOCC2)c(Cl)c1,"inconclusive: 32.6 µM [activator, partial curve, poor fit]"

row,SMILES,Potency
1,CCN1C(=O)/C(=C2/C=Cc3ccccc3N2C)OC1=S,"inconclusive: 23.1 µM [activator, partial curve, poor fit]"
2,CCOc1ccccc1NC(=O)C(c1ccccc1)N1CCN(CC(=O)N2CCCC2)CC1 (configuration not stated),inactive
3,O=C(OCc1nc2ccccc2s1)c1ccccc1O,"inconclusive: 20.6 µM [activator, single point]"
4,CCn1cc(CN2CCC(n3nccc3NC(=O)C3CCCC3)CC2)c(C)n1,inactive
5,CCn1cnc2cc(NCc3ccc(N(C)C)cc3)ccc21,"inconclusive: 25.9 µM [activator, partial curve]"
6,C=CCn1c(SCc2nc3c(c(=O)[nH]c(=O)n3CCCC)n2CCC)nnc1-c1ccccc1,inactive
7,O=C(NC(=S)Nc1ccc(N2CCOCC2)c(Cl)c1)c1cncc(Br)c1,inactive
8,CCc1cc2c(=O)c(-c3cscn3)coc2cc1O,active: 13 µM
9,COc1cc(/C=C/C(=O)O)cc(S(=O)(=O)Nc2ccccc2C(=O)NCCc2ccccc2)c1OC,"inconclusive: 35.5 µM [activator, partial curve, poor fit]"
10,CCOCCCn1c(=S)[nH]c2cc(C(=O)NCCc3ccc(OC)c(OC)c3)ccc2c1=O,"inconclusive: 32.6 µM [activator, partial curve, poor fit]"
11,COc1ccc(Nc2nc(C)cc(C)n2)cc1Cl,"inconclusive: 23.1 µM [activator, partial curve, poor fit]"
12,CC(=O)c1c(C)[nH]c(C(=O)Nc2ccccc2N2CCOCC2)c1C,"inconclusive: 16.4 µM [activator, single point]"
13,Cc1c(C(=O)Nc2ccc(Br)cc2)cnn1C,"inconclusive: 16.4 µM [activator, partial curve, poor fit]"
14,O=C(Nc1nc2ccccc2s1)c1ccccc1,active: 1.03 µM
15,Fc1ccc2cnc(-c3ccccc3)c(-c3cccc(C(F)(F)F)c3)c2c1,inactive
16,COc1cccc(/C=N/NC(=O)c2[nH]nc3c2CCc2ccccc2-3)c1O,"inconclusive: 14.6 µM [activator, partial curve, poor fit]"
17,CCOc1ccc2c(c1)OC(c1ccc(C)cc1)(C(F)(F)F)NC2=O (configuration not stated),"inconclusive: 7.31 µM [activator, partial curve, poor fit]"
18,COC(=O)c1sccc1NC(=O)Nc1ccc(C(C)=O)cc1,active: 18.3 µM
19,S=c1nc(-c2ccc(Br)cc2)oc2c1CCCC2,"inconclusive: 6.51 µM [activator, partial curve]"
20,Cc1ccc(NC(=O)Nc2ccc([N+](=O)[O-])cc2)nc1,"inconclusive: 29.1 µM [activator, partial curve, poor fit]"
21,Cc1cccc(NC(=O)c2ccc(S(=O)(=O)N3CC(C)OC(C)C3)cc2)n1 (configuration not stated),"inconclusive: 16.4 µM [activator, partial curve, poor fit]"
22,O=C(NC(=O)c1ccccc1)Nc1ccccn1,"inconclusive: 0.0052 µM [activator, full curve, poor fit]"
23,CCOc1ccc(N(Cc2ccc(C(=O)O)cc2)S(=O)(=O)c2ccc(C)cc2)cc1,"inconclusive: 29.1 µM [activator, partial curve, poor fit]"
24,O=C(Nc1cccc(-c2nc3ccccc3[nH]2)c1)c1cccc(NC(=O)c2ccco2)c1,inactive
